# In PubChem BioAssay (Tox21):
# Where “and” joins values, the source holds several entries; their conditions need not be identical. Equal entries are not always repeated. This list was built around the results that the source calls inconclusive (neither active nor inactive); the mix of calls is not that of the screen. Potencies beside an inconclusive call are fits to weak or partial responses and may not hold up. A structure can be active in one record and inactive in another. Calls of active or inactive are those of the source. Unless noted, calls follow the shape of the dose curve; as a rule, active = well fitted curve in the direction sought with a large enough effect in the repeat runs; inconclusive = weak or mixed curves; inactive = no such curve, though single readings can be large; an effect the other way counts as inactive or inconclusive.
# Columns and labels:
# [1] = qHTS assay to identify small molecule antagonists of the peroxisome proliferator-activated receptor gamma (PPARg) signaling pathway - cell viability counter screen (AID 743194); details: PPARg-bla HEK293H viability, CellTiter-Glo luminescence, 17 h, co-treated with 50 nM rosiglitazone; activity change, negative = cytotoxicity: at 62.6 µM (top of the series) unless noted; also: nearly all actives have a fitted effect of over 55% in size
# In short: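 Viability was measured as CellTiter-Glo luminescence in GeneBLAzer PPARg UAS-bla HEK293H cells. These cells had been exposed 17 h at 37 C to compounds together with rosiglitazone at 50 nM final, with the beta-lactamase readout taken in the same wells.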
# [2] = qHTS assay for small molecule activators of the heat shock response signaling pathway - cell viability counter screen (AID 743209); details: HSE-bla HeLa viability, CellTiter-Glo luminescence, 5 h; activity change, negative = cytotoxicity: at 62.6 µM (top of the series) unless noted; also: nearly all actives have a fitted effect of over 50% in size
# In short: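 Luminescence from CellTiter-Glo, added after the beta-lactamase FRET read, gave the viability signal. Cells were HSE-bla HeLa treated with DMSO-dissolved compounds for 5 h at 37 C following overnight plating.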
# [3] = qHTS assay for small molecule agonists of the antioxidant response element (ARE) signaling pathway (AID 743202; active = well fitted activation curve with a large enough effect in the signal ratio in the repeat runs, not every such curve was filed as active; inconclusive = weak or mixed curves, or effect the other way; inactive = no such curve, though single readings can be large or run the other way; the % refers to the signal ratio); details: HepG2 ARE-bla reporter, beta-lactamase FRET, 16 h
# In short: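 An ARE-responsive beta-lactamase gene stably integrated in HepG2 cells serves as reporter. After 5 h plating and 16 h compound incubation at 37 C, fluorescence of the B/G FRET substrate was measured.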
# [4] = qHTS assay for small molecule activators of the heat shock response signaling pathway (AID 743210; active = well fitted activation curve with a large enough effect in the signal ratio in the repeat runs, with a control signal flat, not every such curve was filed as active; inconclusive = weak or mixed curves; the % refers to the signal ratio;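 as to activation: HeLa cells with beta-lactamase reporter driven by heat shock elements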); details: HeLa HSE-bla reporter, beta-lactamase ratio, 5 h; activation: at 62.6 µM (top of the series) unless noted
# In short: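 In HSE-bla HeLa cells, 5 h compound incubation (37 C) precedes addition of LiveBLAzer B/G substrate; after 2.5 h at room temperature, fluorescence intensity indicates reporter induction.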
# [5] = qHTS assay to identify small molecule agonists of the peroxisome proliferator-activated receptor delta (PPARd) signaling pathway - cell viability counter screen (AID 743211); details: PPARd-bla HEK293H viability, CellTiter-Glo luminescence, 17 h; activity change, negative = cytotoxicity: at 62.6 µM (top of the series); also: nearly all actives have a fitted effect of over 55% in size
# In short: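 Viability of GeneBLAzer PPARd UAS-bla HEK293H cells was assessed after 17 h compound incubation at 37C, using CellTiter-Glo reagent added after the reporter read and luminescence recorded 30 min later.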
# [6] = activation: at 73.3 µM (top of the series) unless noted
# % is scaled to controls: 0 for no effect and ±100 for the full control effect; potency is read from the fitted curve at half-maximal effect; tags tell the direction and shape of the fitted curve or compound fluorescence and quenching.
smiles,measurement,setting,value
NC(=O)NNc1ccccc1,Potency,[1],inactive
same,Potency,[2],"inconclusive: 0.0061 µM [cytotoxic, full curve, poor fit]"
C(=C\c1ccccc1)/CN1CCN(C(c2ccccc2)c2ccccc2)CC1,Potency,[1],"inconclusive: 33.5 µM [cytotoxic, single point]"
same,Potency,[3]; [6],inconclusive: 13.3 µM
same,Potency,[4],"inconclusive: 33.5 µM [falling, single point]"
Cc1ccc(Cl)cc1N,Potency,[3]; [6],inactive
C[C@@H](O)[C@H](N)C(=O)O,Potency,[3]; [6],inactive
Nc1ccc(C(=O)O)cc1,Potency,[1],inactive
same,activation,[4],inconclusive: 5.8%
NS(=O)(=O)c1cc(C(=O)O)c(NCc2ccco2)cc1Cl,activation,[3]; at 94.8 µM (top of the series),inactive: 10.2%
same,Potency,[5],"inconclusive: 0.0389 µM [cytotoxic, full curve, poor fit]"
CC(C)=CCO,activation,[3]; at 94.8 µM (top of the series),inconclusive: 16.7%
CCCCCCCCCCCCCCC[C@H](O)[C@@H](N)CO,Potency,[4],inactive
CCCCCCCC/C=C/C(=O)O,Potency,[4],inactive
CC[Si](OC(C)=O)(OC(C)=O)OC(C)=O,Potency,[3]; [6],inconclusive: 68.5 µM
same,Potency,[4],inactive
CCCCOC(=O)CCCCCCCC(=O)OCCCC,Potency,[3]; [6],"inconclusive: 54.5 µM [rising, partial curve, poor fit]"
same,Potency,[4],inactive
CO[C@H]1O[C@H](CO)[C@@H](O)[C@H](O)[C@H]1O,Potency,[3]; [6],inactive
same,Potency,[2],"inconclusive: 0.0121 µM [cytotoxic, full curve, poor fit]"
Nc1nc(N)nc(-c2cc(Cl)ccc2Cl)n1,Potency,[3]; [6],inactive
same,Potency,[4],inactive
CC1=CC[C@@H]2C[C@H]1C2(C)C,activation,[3]; [6],inactive: -11.5% [at 18.1 µM]
same,Potency,[4],inconclusive: 10.3 µM [activator]
CC(C)(C)NCC(O)COc1cccc2c1CCC(=O)N2 (stereo not drawn),Potency,[3]; [6],inactive
same,Potency,[2],inactive
COC(C)CCO (stereo not drawn),Potency,[3]; [6],inactive
same,Potency,[4],inactive
COC(=O)CCCCCCCC(=O)OC,Potency,[3]; [6],"inconclusive: 21.7 µM [rising, partial curve]"
same,Potency,[4],"inconclusive: 24.5 µM [activator, single point]"
CCCCCCCCCCCCCCCCCC(=O)OCC(CC)CCCC (stereo not drawn),activation,[3]; [6],inconclusive: 19%
same,Potency,[4],inactive
Oc1cccc2ccccc12,Potency,[3]; [6],active: 31.4 µM and active: 30.6 µM
same,Potency,[4],inactive
CCCCC/C=C\C/C=C\CCCCCCCC(=O)OC,activation,[3]; [6],inconclusive: 43.6%
same,Potency,[2],active: 38.9 µM
same,Potency,[4],inconclusive: 43.6 µM [partial curve]
same,Potency,[5],"inactive and inconclusive: 24.5 µM [cytotoxic, partial curve, poor fit]"
CC12CC3CC(C)(C1)CC(N)(C3)C2,Potency,[3]; [6],inactive
same,Potency,[4],inactive
CC(C)CC(=O)N[C@H](C(=O)N[C@H](C(=O)N[C@@H](CC(C)C)[C@@H](O)CC(=O)N[C@@H](C)C(=O)N[C@@H](CC(C)C)[C@@H](O)CC(=O)O)C(C)C)C(C)C,Potency,[3]; [6],inactive
same,Potency,[4],"inconclusive: 0.841 µM [rising, full curve, poor fit]"
O=C(C1CCCCC1)N1CC(=O)N2CCCc3ccccc3C2C1 (stereo not drawn),Potency,[3]; [6],"inconclusive: 23.7 µM [rising, partial curve]"
same,Potency,[2],"inconclusive: 0.298 µM [cytotoxic, single point]"
O=Cc1ccc(Cl)c([N+](=O)[O-])c1,Potency,[3]; [6],"inconclusive: 43.3 µM [falling, partial curve, poor fit]"
same,Potency,[2],"inconclusive: 61.6 µM [cytotoxic, partial curve, poor fit]"
same,Potency,[4],inconclusive: 58.2 µM
c1cc[c]([Bi]([c]2ccccc2)[c]2ccccc2)cc1,activation,[3]; [6],inconclusive: 19.1%
same,Potency,[4],inconclusive: 51.9 µM [activator]
CC(=O)OCCc1ccccc1,Potency,[3]; [6],inactive
same,Potency,[2],inactive
CC(C)(C)CC(C)(C)c1ccc(OCCO)cc1,Potency,[3]; [6],"inconclusive: 27.1 µM [falling, partial curve, poor fit]"
same,Potency,[4],inconclusive: 61.3 µM
same,Potency,[5],"inconclusive: 54.6 µM [cytotoxic, single point]"
O=C1CCCN1CCO,activation,[3]; [6],inconclusive: -5.09%
same,Potency,[4],inconclusive: 61.6 µM [activator]
CCn1cc(C(=O)O)c(=O)c2ccc(C)nc21,Potency,[3]; [6],inactive
same,Potency,[4],inconclusive: 58.2 µM
[O-][n+]1cccc(CO)c1,Potency,[3]; [6],inactive
same,Potency,[4],inactive
OC(CCN1CCCCC1)(c1ccccc1)c1ccccc1,Potency,[3]; [6],inactive
same,Potency,[4],inactive
CN(CCOc1ccc(CC2SC(=O)NC2=O)cc1)c1ccccn1 (stereo not drawn),Potency,[3]; [6],active: 21.6 µM
same,Potency,[2],inactive
Cc1cc(Cl)c(C)cc1Cl,Potency,[3]; [6],inactive
same,Potency,[4],inactive
CC(CC=O)c1ccccc1 (stereo not drawn),Potency,[3]; [6],inactive
same,Potency,[2],inactive
Cc1onc(-c2ccccc2)c1-c1ccc(S(N)(=O)=O)cc1,Potency,[3]; [6],inactive
same,Potency,[2],"inconclusive: 1.19 µM [rising, partial curve, poor fit]"
same,Potency,[5],inactive
C1COCCN1,activation,[3]; [6],inconclusive: -8.5% [at 94.8 µM]
same,Potency,[4],inactive
OCCN1CCN(CCO)CC1,Potency,[3]; [6],inactive
same,Potency,[2],inactive
CC/C=C/CCO,activation,[3]; [6],inconclusive: -5.47% [at 94.8 µM]
same,Potency,[2],inactive
CC(=O)OCC(=O)[C@@]1(O)CC[C@H]2[C@@H]3CCC4=CC(=O)CC[C@]4(C)[C@H]3C(=O)C[C@@]21C,activation,[3]; [6],inconclusive: -9.8%
same,Potency,[2],"inconclusive: 0.596 µM [cytotoxic, single point]"
CCN(CC)CCOC(=O)C(c1ccccc1)c1ccccc1,Potency,[3]; [6],inactive
same,Potency,[4],inactive
CC(C)NC(=O)c1ccc(C=O)cc1,activation,[3]; [6],inconclusive: -5.74%
same,Potency,[2],inactive
CCCCCCCCCCCCCC(=O)OCC(O)CO (stereo not drawn),Potency,[3]; [6],inactive
same,Potency,[2],inactive
same,Potency,[5],"inconclusive: 0.347 µM [cytotoxic, full curve, poor fit]"
O=C(/C=C/c1ccccc1)OC/C=C/c1ccccc1,activation,[3]; [6],inconclusive: 32.7%
same,Potency,[4],inactive
C#C[C@]1(OC(C)=O)CC[C@H]2[C@@H]3CCC4=C[C@@H](OC(C)=O)CC[C@@H]4[C@H]3CC[C@@]21C,Potency,[3]; [6],active: 26.6 µM
same,Potency,[2],inactive
same,Potency,[5],"inconclusive: 29.8 µM [cytotoxic, single point]"
C1COCCO1,activation,[3]; [6],inconclusive: -28.3% [at 94.8 µM]
same,Potency,[4],inactive
O=C(OCC1CO1)C1CCCCC1C(=O)OCC1CO1 (stereo not drawn),Potency,[3]; [6],active: 48.6 µM
same,Potency,[4],inactive
ON=C1CCCC1,Potency,[3]; [6],inactive
same,Potency,[2],inactive
COc1cc(C(=O)OCCCN2CCCN(CCCOC(=O)c3cc(OC)c(OC)c(OC)c3)CC2)cc(OC)c1OC,Potency,[3]; [6],active: 11.9 µM
same,Potency,[4],inactive
O=Cc1ccc(O)c(O)c1O,Potency,[3]; [6],active: 23.7 µM
same,Potency,[2],"inconclusive: 26.6 µM [cytotoxic, partial curve, poor fit]"
same,Potency,[4],"inconclusive: 33.5 µM [activator, single point]"
same,Potency,[5],"inconclusive: 33.5 µM [cytotoxic, single point]"
